Source: the RNAGym collection of RNA variant scans (doi:10.1093/nar/gkz1192)
The source gives no read counts; variants with many changes may rest on few reads.

B1: CPEB3 Ribozyme (parent)
chain: UAACAGGGGGCCACAGCAGAAGCGUUCACGUCGCAGCCCCUGUCAGAUUCUGGUGAAUCUGCGAAUUCUGCUGUAUAUCUC

Variants of: B1
Experiment: self-cleavage, relative activity (ratio to wild type); higher = more cleavage; in vitro, sequencing
Summary of the method: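 Barcoded CPEB3 ribozyme mutants, produced by rounds of error-prone PCR, self-cleaved while being transcribed with T7 RNA polymerase for 5 hours at 37°C and during a subsequent 15 min DNase I step before EDTA was added. Sequencing of template-switched cDNA on Illumina gave cleaved and total reads, and DNA sequencing assigned barcodes to variants. Each variant's relative activity is its cleaved/total read fraction divided by the unmutated ribozyme's fraction, averaged across three batches. A variant needed a minimum of 5 reads.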

Variant	self-cleavage
A5G U26C C29U U41C A56G	0.33
A5G U26C C34U A35G A56G U58G	0.08
A5G U26C C37U U67C U69A	0.15
A5G U26C C39A U58A A65U	0.09
A5G U26C G36A U76C	0.09
A5G U26C G36U A64G U76C	0.09
A5G U26C G42A U43C	0.57
A5G U26C G46A G63A	0.03
A5G U26C G53C A64G U66C U78C	0.05
A5G U26C G73U U76C	0.72
A5G U26C U31C A45U A47U U49C U66A	0.05
A5G U26C U31C C40U U60G U69A	0.19
A5G U26C U41C U43C	0.58
A5G U26C U51A U72G	0.17
A5G U26C U54A	0.18
A5G U26C U54G U66C	0.24
A5G U26C U58A U69C U72A	0.06
A5G U26C U60A A75U	0.15
A5G U26C U76C	0.51
A5G U26C U78A	0.59
A5G U26G A45G A65U	0.23

Variant	self-cleavage
A5G U31A A35U	0.31
A5G U31A A57G C81A	0.47
A5G U31A C39G U69A	0.23
A5G U31A C59A	0.31
A5G U31A G33C A35G	0.12
A5G U31A U41A U80C	0.08
A5G U31A U43A U49G A57G	0.24
A5G U31A U48C A56C	0.11
A5G U31A U54C U60C U67A	0.15
A5G U31A U72A	0.27
A5G U31A U72C	0.4
A5G U31C A45U A65U	0.1
A5G U31C A47G	0.41
A5G U31C A56G	0.3
A5G U31C A56G U76C A77G	0.22
A5G U31C A57G A75U	0.32
A5G U31C A64U	0.25
A5G U31C A75C U78C	0.41
A5G U31C C38A U43C U72A	0.19
A5G U31C G36A A45G U76A	0.06
A5G U31C U43C A57G U72A U80A	0.07

Variant	self-cleavage
A5G U31C U43C U49C	0.25
A5G U31C U60C G70A U72C	0.08
A5G U31G A45G	0.82
A5G U31G A45U C62U U76C	0.25
A5G U31G C34U	0.43
A5G U31G U41C C62A	0.5
A5G U31G U49C A57G U67C U72A	0.08
A5G U31G U69G	0.44
A5G U41A A45G U49A	0.03
A5G U41A G55A C68A U72C	0.15
A5G U41A U49C	0.35
A5G U41A U54A C71U	0.11
A5G U41A U76C	0.35
A5G U41A U78C	0.24
A5G U41C A56G A64G	0.05
A5G U41C A57G U78C	0.32
A5G U41C A65G	0.24
A5G U41C A75G	0.5
A5G U41C U49C U54C	0.18
A5G U41C U54C U76C	0.33
A5G U41C U66C	0.32

Variant	self-cleavage
A5G U41C U69A U72A	0.27
A5G U41C U69G	0.15
A5G U41C U76A	0.33
A5G U41C U78C	0.42
A5G U41C U80A	0.87
A5G U41G A56G U66C U69G	0.07
A5G U41G U49C A65G	0.02
A5G U41G U51C U74C	0.46
A5G U41G U54C U76A	0.12
A5G U43A A45G A57U U58A	0.08
A5G U43A A56U A57G U76C A77C	0.41
A5G U43A A57U	0.57
A5G U43A G46A	0.32
A5G U43A U49C U72C U80C	0.52
A5G U43A U69A	0.27
A5G U43A U69A U80C	0.28
A5G U43C A45U U60C A65G	0.22
A5G U43C A47U	0.15
A5G U43C A57G U80C	0.38
A5G U43C A64C	0.09
